Laboratory results as given in PubChem BioAssay AID1460 (National Center for Advancing Translational Sciences (NCATS), 2008).
In all, about 270,000 compounds went through this assay and about 5,800 (2.1%) were called active. The inconclusive results got no clear call from the source; some entries with a clear call stand among them for comparison. The call rests on the fitted dose curve; in most records, active means well fitted inhibition curve with a large enough effect; inconclusive means small, poorly fitted or top-dose-only effect; inactive means flat fitted curve, though single readings scatter. Where the call is inconclusive, the potency comes from a doubtful curve fit.

Each compound was assayed against Microtubule-associated protein tau (Homo sapiens) (UniProt P10636) (assay: qHTS for Inhibitors of Tau Fibril Formation, Thioflavin T Binding). Settings: recombinant tau K18 P301L, heparin-induced fibrillization, ThT fluorescence; series mostly up to 57.4 µM; activity, negative = inhibition: at the top concentration.
UniProt P10636, sequence (P10636 whole entry, looked up): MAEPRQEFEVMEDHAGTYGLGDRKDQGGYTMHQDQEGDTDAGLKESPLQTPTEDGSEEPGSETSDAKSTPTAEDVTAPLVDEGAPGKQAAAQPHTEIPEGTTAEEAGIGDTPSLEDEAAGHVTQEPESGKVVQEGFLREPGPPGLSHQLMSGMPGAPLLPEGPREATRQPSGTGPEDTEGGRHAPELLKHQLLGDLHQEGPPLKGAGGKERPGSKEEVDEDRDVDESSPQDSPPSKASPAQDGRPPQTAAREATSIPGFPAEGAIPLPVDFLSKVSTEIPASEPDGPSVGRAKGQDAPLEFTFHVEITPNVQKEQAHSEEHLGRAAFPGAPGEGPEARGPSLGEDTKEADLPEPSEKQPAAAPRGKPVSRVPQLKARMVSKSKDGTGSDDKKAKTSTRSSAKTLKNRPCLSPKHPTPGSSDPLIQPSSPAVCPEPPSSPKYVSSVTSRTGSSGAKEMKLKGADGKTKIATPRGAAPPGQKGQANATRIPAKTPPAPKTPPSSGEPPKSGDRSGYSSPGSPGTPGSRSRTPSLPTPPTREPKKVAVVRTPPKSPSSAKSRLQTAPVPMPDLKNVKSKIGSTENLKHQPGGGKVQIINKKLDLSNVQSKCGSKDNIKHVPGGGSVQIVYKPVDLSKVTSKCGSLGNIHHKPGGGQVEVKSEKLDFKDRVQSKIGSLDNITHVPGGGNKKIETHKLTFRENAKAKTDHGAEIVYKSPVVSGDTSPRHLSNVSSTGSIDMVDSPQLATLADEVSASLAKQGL
Summary of the method: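 ThT emission at 510 nm, taken 1 hr after adding 30 uM dye, quantifies aggregates formed when 20 uM heparin acts on human tau K18 P301L for 6 hr at 37 C.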
Further: nearly all actives have a fitted effect of over 55% in size.
On the % scale 0 is the no-effect control and ±100 the full control effect; potency means the concentration at half of the fitted maximal effect; tags describe the fitted curve by direction and shape.

SMILES	Potency	activity, negative = inhibition
Cc1sc2nc(C3CC3)nc(SCC(=O)N3CCc4ccccc4C3)c2c1C	inconclusive: 15.8 µM [inhibitor, partial curve]	–
NC1=C(c2ccc(F)cc2)C(=O)CS1	–	inactive: 9.14%
Cc1nnc(N2CCN(C(=O)Nc3cccc(C(F)(F)F)c3)CC2)c2nn(-c3ccccc3)c(C)c12	inconclusive: 39.8 µM [inhibitor, single point]	–
COc1cccc(/C=N/Nc2nc(Nc3ccccc3)nc(-n3nc(C)cc3C)n2)c1O	inconclusive: 7.08 µM [inhibitor, partial curve]	–
N=C1/C(=C\c2ccc(-c3cccc(C(=O)O)c3)o2)C(=O)N=C2SC=C(c3ccccc3)N12	active: 2.51 µM	–
O=c1oc2ccccc2c(Cl)c1CN1CCCCC1	inconclusive: 22.4 µM [inhibitor, partial curve, poor fit]	–
NC(=O)c1cc(S(=O)(=O)NCC2CCC(C(=O)Nc3ccc(Cl)cc3)CC2)cs1 (configuration not stated)	–	inactive: 10.8%
O=C(Nc1cccc(Cl)c1)c1csnn1	–	inactive: -9.63%
Cn1c(C(=O)N2CCCC(C(=O)NCCCc3ccccc3)C2)cc2sccc21 (configuration not stated)	inconclusive: 15.8 µM [inhibitor, partial curve]	–
NC(=O)CC(NC(=O)Cc1cccc2ccccc12)c1ccc(NCc2ccccc2)c([N+](=O)[O-])c1 (configuration not stated)	inconclusive: 10 µM [inhibitor, partial curve]	–
COc1ccc(-c2cc(C(=O)n3cnc4ccccc43)c3ccccc3n2)cc1	inconclusive: 17.8 µM [inhibitor, partial curve]	–
Cc1oc2ccc(O)c(CN3CCN(C)CC3)c2c1C(=O)Nc1ccccc1	–	inactive: 8.04%
COC(=O)c1c(NC(=O)c2nc3nc(C)cc(C(F)F)n3n2)sc2c1CCC2	inconclusive: 15.8 µM [inhibitor, partial curve]	–
O=C(Nc1ccc(N2CCOCC2)cc1)c1ccc(-c2ccccc2[N+](=O)[O-])o1	active: 2.24 µM	–
Cc1ccc2c(nc3s/c(=C/c4cccs4)c(=O)n32)c1C	inconclusive: 8.91 µM [inhibitor, partial curve]	–
Cc1ccc(S(=O)(=O)NCC(c2cccnc2)N(C)C)cc1 (configuration not stated)	–	inactive: -3.89%
COc1ccccc1NC(=O)CSc1nnnn1-c1ccc(C)cc1	–	inactive: -6.11%
Cc1c(C(=O)O)cccc1-n1c(C)cc(C=O)c1C	–	inactive: -0.867%
COc1ccc(Cn2c(CCC(=O)Nc3ccc(C)cc3C)nc3cccnc32)cc1	inconclusive: 39.8 µM [inhibitor, single point]	–
CC1CN(C2CCN(C(=O)COc3ccc(Cl)cc3)CC2)CC(C)O1 (configuration not stated)	inconclusive: 12.6 µM [inhibitor, partial curve, poor fit]	–
O=C(OCC(=O)c1ccc[nH]1)c1ccc2ccccc2n1	inconclusive: 7.08 µM [inhibitor, partial curve, poor fit]	–
COc1ccc(C(=O)CN2Cc3ccccc3C2=N)cc1	inconclusive: 35.5 µM [inhibitor, single point]	–
NC[C@@H]1O[C@H](c2ccccc2)Cc2c1ccc(O)c2O	inconclusive: 20 µM [inhibitor, partial curve]	–
Cc1cccc(OCCCOc2cccc3cccnc23)c1C	inconclusive: 31.6 µM [inhibitor, single point]	–

SMILES	Potency	activity, negative = inhibition
Cc1ccc(C2CCN(C(=O)Nc3ccc(Cl)c(Cl)c3)C2)cc1 (configuration not stated)	inconclusive: 3.98 µM [inhibitor, full curve]	–
CCc1nn(CC(=O)NCCc2ccc(Cl)cc2)c(=O)c2cc3ccccc3n12	–	inactive: -6.74%
CCOC(=O)c1[nH]c(C)c(CCC(=O)Nc2ccccc2C(=O)OC)c1C	–	inactive: 3.06%
CCOP(=O)(OCC)c1nc(-c2ccccc2)oc1NCc1ccccc1	–	inactive: -1.15%
CC1CCN(S(=O)(=O)c2ccc3c(ccc(=O)n3CC(=O)NCc3ccccc3Cl)c2)CC1	–	inactive: -1.03%
Nc1nc(-c2sc3nc4c(cc3c2N)CCCC4)nc(N2CCOCC2)n1	active: 3.55 µM	–
CN(C)C=Nc1ccccc1C1C=NNC1=O (configuration not stated)	active: 11.2 µM	–
CC(=O)c1c(C)nc2sc3c(=N)n(N)cnc3c2c1-c1ccc(Cl)cc1	inconclusive: 15.8 µM [inhibitor, partial curve]	–
Cc1ccc(CNC(=O)CSc2nnc(C)c3c(C)n(-c4ccccc4)nc23)cc1	inconclusive: 7.94 µM [inhibitor, partial curve]	–
CC(=O)C1=C(C)NC2=C(C(=O)c3ccccc32)C1c1ccccc1 (configuration not stated)	active: 17.8 µM	–
C=CCc1cccc([C@@H]2[C@@H](C)CC[C@H]3C(=O)N4[C@@H](c5cc(OC)c(OC)c(OC)c5)c5[nH]c6ccccc6c5C[C@H]4C(=O)N23)c1	inconclusive: 15.8 µM [inhibitor, partial curve]	–
CCc1ccc(CCC(=O)Nc2nc(CC(C)=O)ns2)o1	inconclusive: 31.6 µM [inhibitor, partial curve]	–
COC(=O)c1sc2nc(-c3ccco3)ccc2c1N	active: 7.08 µM	–
CCn1c(=O)cc(SCC(=O)NCc2ccc(Cl)cc2)c2ccccc21	–	inactive: 0.962%
CC1CN(Cc2ccc(C#N)cc2Cl)CC(C)O1 (configuration not stated)	–	inactive: -6.76%
O=C(CCNc1ccc(F)c(Cl)c1)c1ccco1	–	inactive: -16.8%
COc1cccc(CNCc2cccn2-c2nnc(N3CCN(c4ccccc4)CC3)s2)c1	inconclusive: 15.8 µM [inhibitor, partial curve]	–
COc1ccc(/C=N\Nc2ccc([N+](=O)[O-])cc2[N+](=O)[O-])c(C(=O)O)c1OC	active: 14.1 µM	–
NS(=O)(=O)c1cccc(NC(=O)COC(=O)/C(=C/c2cccs2)c2cccs2)c1	inconclusive: 12.6 µM [inhibitor, partial curve]	–
CN(C)c1cccc(C(=O)Nc2nc3ccc(S(=O)(=O)N4CCCC4)cc3s2)c1	inconclusive: 31.6 µM [inhibitor, partial curve]	–
COc1ccc(N2CCc3c(C)nc4c(OC)cccc4c32)cc1	–	inactive: -7.21%
O=[N+]([O-])c1ccc(N2CCC(=NOCc3ccc(Cl)cc3)CC2)cc1	inconclusive: 3.98 µM [inhibitor, partial curve]	–
N/C(=N\OC(=O)COc1ccc([N+](=O)[O-])cc1)c1ccc(Br)cc1	inconclusive: 22.4 µM [inhibitor, partial curve, poor fit]	–
